Source: the supplement of paper PMC4604168 (melanoma cell lines)
The other results are listed elsewhere or left out. Most values come without repeats; read them as rough.

Each compound was assayed on RPMI7951 (assay: cell count relative to DMSO control; melanoma cells; higher = more viable cells). Conditions: library dose: low library concentration; 72 h; first compound 0.4 µM.
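Further: cell number obtained by counting DAPI-stained nuclei in high-throughput microscope images with image analysis software, screen run in 1,536-well plates.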

| Structure (SMILES) | cell count [%] |
| --- | --- |
| Cn1sc(=O)n(Cc2ccccc2)c1=O + c1cc(-c2cnn3cc(-c4ccc(OCCN5CCCCC5)cc4)cnc23)ccn1 [Dorsomorphin] (partner dose 0.4 µM) | 104 |
| C[C@@H](N)c1ccc(C(=O)Nc2ccnc3[nH]ccc23)cc1 + Oc1nc(-c2ccc(C(F)(F)F)cc2)nc2c1CSCC2 [XAV939] (partner dose 2 µM) | 67.1 |
| CCCCCCCCCCCCCCCCCCOP(=O)([O-])OC1CC[N+](C)(C)CC1 [Perifosine] + Cn1cc(/C=C2\C(=O)Nc3cccnc32)c2ccccc21 [GW441756] (partner dose 0.4 µM) | 84.5 |
| C[C@@H](N)c1ccc(C(=O)Nc2ccnc3[nH]ccc23)cc1 + CN(NC(=O)CC(=O)NN(C)C(=S)c1ccccc1)C(=S)c1ccccc1 [STA4783] (partner dose 0.006 µM) | 80.8 |
| C[C@@H](N)c1ccc(C(=O)Nc2ccnc3[nH]ccc23)cc1 + COc1cc2ncnc(Nc3ccc(Oc4ccccc4)cc3)c2cc1OC [SrcI1] (partner dose 2 µM) | 80.7 |
| Cn1sc(=O)n(Cc2ccccc2)c1=O + N#Cc1c(O)c2c(-c3ccc(-c4ccccc4O)cc3)csc2[nH]c1=O [A769662] (partner dose 2 µM) | 107 |
| CCCCCCCCCCCCCCCCCCOP(=O)([O-])OC1CC[N+](C)(C)CC1 [Perifosine] + c1cc(-c2cnn3cc(-c4ccc(OCCN5CCCCC5)cc4)cnc23)ccn1 [Dorsomorphin] (partner dose 0.4 µM) | 51.1 |
| Cn1sc(=O)n(Cc2ccccc2)c1=O + O=c1cc(-c2cccc3c2Sc2ccccc2S3)oc(N2CCOCC2)c1 [KU55933] (partner dose 1 µM) | 89.8 |
| C[C@@H](N)c1ccc(C(=O)Nc2ccnc3[nH]ccc23)cc1 + COc1cc2c(Oc3ccc4[nH]c(C)cc4c3F)ncnc2cc1OCCCN1CCCC1 [cediranib] (partner dose 0.4 µM) | 83.1 |
| C[C@@H](N)c1ccc(C(=O)Nc2ccnc3[nH]ccc23)cc1 + COc1ccc(-c2ccc3c(N4CCOCC4)nc(N4C[C@@H](C)O[C@@H](C)C4)nc3n2)cc1CO [KU0063794] (partner dose 0.02 µM) | 64.2 |
| C[C@@H](N)c1ccc(C(=O)Nc2ccnc3[nH]ccc23)cc1 + COC(=O)c1sccc1S(=O)(=O)Nc1ccc(Nc2ccccc2)cc1OC [GSK0660] (partner dose 1 µM) | 78 |
| C[C@@H](N)c1ccc(C(=O)Nc2ccnc3[nH]ccc23)cc1 + COc1cc(Nc2ncc(F)c(Nc3ccc4c(n3)NC(=O)C(C)(C)O4)n2)cc(OC)c1OC [Tamatinib] (partner dose 0.4 µM) | 75.7 |
| Cn1sc(=O)n(Cc2ccccc2)c1=O + CCc1ccc(CCOc2ccc(CC3SC(=O)NC3=O)cc2)nc1 [pioglitazone] (partner dose 2 µM) | 89.8 |
| Cn1sc(=O)n(Cc2ccccc2)c1=O + O=C(O)C(=O)Nc1sc2c(c1C(=O)O)CCNC2 [TCS401] (partner dose 1.66667 µM) | 83.5 |
| CCCCCCCCCCCCCCCCCCOP(=O)([O-])OC1CC[N+](C)(C)CC1 [Perifosine] + O=S(=O)(c1ccccc1)N(CC(F)(F)F)c1ccc(C(O)(C(F)(F)F)C(F)(F)F)cc1 [T0901317] (partner dose 1.4 µM) | 77.5 |
| CCCCCCCCCCCCCCCCCCOP(=O)([O-])OC1CC[N+](C)(C)CC1 [Perifosine] + N#Cc1c(O)c2c(-c3ccc(-c4ccccc4O)cc3)csc2[nH]c1=O [A769662] (partner dose 2 µM) | 82.2 |
| C[C@@H](N)c1ccc(C(=O)Nc2ccnc3[nH]ccc23)cc1 + C[C@@H]1CCN(C(=O)CC#N)C[C@@H]1N(C)c1ncnc2[nH]ccc12 [CP690550] (partner dose 1 µM) | 89.8 |
| Cn1sc(=O)n(Cc2ccccc2)c1=O + Oc1nc(-c2ccc(C(F)(F)F)cc2)nc2c1CSCC2 [XAV939] (partner dose 2 µM) | 66.5 |
| CCCCCCCCCCCCCCCCCCOP(=O)([O-])OC1CC[N+](C)(C)CC1 [Perifosine] + CC(C)CCN1c2nc(Nc3cc(F)c(O)c(F)c3)ncc2N(C)C(=O)C1C [BID1870] (partner dose 0.2 µM) | 93.2 |
| Cn1sc(=O)n(Cc2ccccc2)c1=O + COc1cc2ncnc(Nc3ccc(Oc4ccccc4)cc3)c2cc1OC [SrcI1] (partner dose 2 µM) | 85 |

| Structure (SMILES) | cell count [%] |
| --- | --- |
| Cn1sc(=O)n(Cc2ccccc2)c1=O + COC(=O)c1sccc1S(=O)(=O)Nc1ccc(Nc2ccccc2)cc1OC [GSK0660] (partner dose 1 µM) | 85.1 |
| Cn1sc(=O)n(Cc2ccccc2)c1=O + CC1(C)NC(=O)N(c2ccc([N+](=O)[O-])c(C(F)(F)F)c2)C1=O [nilutamide] (partner dose 1 µM) | 91.6 |
| Cn1sc(=O)n(Cc2ccccc2)c1=O + COc1ccc(COc2ccc(Cc3cnc(N)nc3N)cc2OC)cc1 [GW2580] (partner dose 1 µM) | 90.2 |
| C[C@@H](N)c1ccc(C(=O)Nc2ccnc3[nH]ccc23)cc1 + CCCCCCCCCCCC1=C(O)C(=O)C=C(O)C1=O [Embelin] (partner dose 1.2 µM) | 85.1 |
| CCCCCCCCCCCCCCCCCCOP(=O)([O-])OC1CC[N+](C)(C)CC1 [Perifosine] + O=C(O)c1ccc(-c2c[nH]c3ncc(-c4ccccc4)cc23)cc1C1CCCC1 [GSK650394] (partner dose 0.16 µM) | 64.1 |
| C[C@@H](N)c1ccc(C(=O)Nc2ccnc3[nH]ccc23)cc1 + CO[C@@H]1[C@H](N(C)C(=O)c2ccccc2)C[C@H]2O[C@]1(C)n1c3ccccc3c3c4c(c5c6ccccc6n2c5c31)C(=O)NC4 [Midostaurin] (partner dose 0.08 µM) | 78.5 |
| Cn1sc(=O)n(Cc2ccccc2)c1=O + CN(NC(=O)CC(=O)NN(C)C(=S)c1ccccc1)C(=S)c1ccccc1 [STA4783] (partner dose 0.006 µM) | 96.8 |
| Cn1sc(=O)n(Cc2ccccc2)c1=O + Oc1cc(-c2nc(-c3ccccc3)[nH]c2-c2ccncc2)ccc1Cl [L779450] (partner dose 0.2 µM) | 90.2 |
| CCCCCCCCCCCCCCCCCCOP(=O)([O-])OC1CC[N+](C)(C)CC1 [Perifosine] + Cc1cc([N+](=O)[O-])ccc1NS(=O)(=O)c1cc(Cl)ccc1Cl [FH535] (partner dose 1 µM) | 67.9 |
| C[C@@H](N)c1ccc(C(=O)Nc2ccnc3[nH]ccc23)cc1 + O=C(O)C(=O)Nc1sc2c(c1C(=O)O)CCNC2 [TCS401] (partner dose 1.66667 µM) | 89.3 |
| C[C@@H](N)c1ccc(C(=O)Nc2ccnc3[nH]ccc23)cc1 + COc1ccc(COc2ccc(Cc3cnc(N)nc3N)cc2OC)cc1 [GW2580] (partner dose 1 µM) | 81.2 |
| CCCCCCCCCCCCCCCCCCOP(=O)([O-])OC1CC[N+](C)(C)CC1 [Perifosine] + OCCn1cc(-c2cnc3nnn(Cc4ccc5ncccc5c4)c3n2)cn1 [PF04217903] (partner dose 1 µM) | 34.5 |
| C[C@@H](N)c1ccc(C(=O)Nc2ccnc3[nH]ccc23)cc1 + CN(C)S(=O)(=O)c1ccc2c(c1)/C(=C/c1cc3c([nH]1)CCCC3)C(=O)N2 [SU6656] (partner dose 0.4 µM) | 66.8 |
| Cn1sc(=O)n(Cc2ccccc2)c1=O + Cc1cc([N+](=O)[O-])ccc1NS(=O)(=O)c1cc(Cl)ccc1Cl [FH535] (partner dose 1 µM) | 96.2 |
| Cn1sc(=O)n(Cc2ccccc2)c1=O + CC(C)CCN1c2nc(Nc3cc(F)c(O)c(F)c3)ncc2N(C)C(=O)C1C [BID1870] (partner dose 0.2 µM) | 81 |
| C[C@@H](N)c1ccc(C(=O)Nc2ccnc3[nH]ccc23)cc1 + c1cc(-c2cnn3cc(-c4ccc(OCCN5CCCCC5)cc4)cnc23)ccn1 [Dorsomorphin] (partner dose 0.4 µM) | 65.2 |
| CCCCCCCCCCCCCCCCCCOP(=O)([O-])OC1CC[N+](C)(C)CC1 [Perifosine] + CC(C)(C)c1cnc(CSc2cnc(NC(=O)C3CCNCC3)s2)o1 [SNS-032] (partner dose 0.01 µM) | 28.2 |
| C[C@@H](N)c1ccc(C(=O)Nc2ccnc3[nH]ccc23)cc1 + O=c1cc(-c2cccc3c2Sc2ccccc2S3)oc(N2CCOCC2)c1 [KU55933] (partner dose 1 µM) | 76.3 |
| CCCCCCCCCCCCCCCCCCOP(=O)([O-])OC1CC[N+](C)(C)CC1 [Perifosine] + C[C@@H]1CCN(C(=O)CC#N)C[C@@H]1N(C)c1ncnc2[nH]ccc12 [CP690550] (partner dose 1 µM) | 30.3 |
